Measured values reported in publication PMC6212790.
The list shows a part of the results. At the low end of the ranking the order means little.
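Note: rank score from −0.5 (least bound) to 0.5 (best bound).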

What follows are sequences tested against T1, GST-Rok (full length) (UniProt O34857) (assay: protein binding microarray). Settings: Rok is a gene silencer of Bacillus subtilis; high values mean tight binding; most listed sequences are background and not binding sites; double strand, one strand shown.
T1 sequence: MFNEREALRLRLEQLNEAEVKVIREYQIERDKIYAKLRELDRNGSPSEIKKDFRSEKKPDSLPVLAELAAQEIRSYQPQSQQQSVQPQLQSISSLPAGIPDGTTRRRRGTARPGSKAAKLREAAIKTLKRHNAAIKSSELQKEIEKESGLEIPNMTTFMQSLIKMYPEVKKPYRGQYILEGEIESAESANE
AATAGAAA was tested, and the binding signal was 0.371 E-score.
In the case of AGTCGAGC, the binding signal is reported as -0.23 E-score.
GTTGTGGA was tested, and the binding signal was -0.0475 E-score.
ACGACTAC showed a binding signal of 0.134 E-score.
For CATTGAAC, the binding signal was 0.0412 E-score.
For CGAACCGA, the binding signal was -0.121 E-score.
ACAGGAGG gave a binding signal of -0.215 E-score.
In the case of GCGCGACC, the binding signal is reported as -0.257 E-score.
CTAGGATC was tested, and the binding signal was 0.034 E-score.
Sequence ACGTCGGC has a binding signal of -0.2 E-score.
Sequence ACCCACTA has a binding signal of 0.0873 E-score.
ATAGCCAG gave a binding signal of -0.166 E-score.
For ATGGGGAC, the binding signal was -0.174 E-score.
ATTTGCTC was tested, and the binding signal was 0.151 E-score.
GTCCATGA showed a binding signal of -0.165 E-score.
Sequence GCGACTCC has a binding signal of -0.221 E-score.
With CGAAACAG the binding signal was -0.14 E-score.
Sequence GAGATTAA has a binding signal of 0.223 E-score.
CACCACCG gave a binding signal of 0.0663 E-score.
Sequence CTACCAGA has a binding signal of 0.218 E-score.
ACAATTGG showed a binding signal of 0.119 E-score.
In the case of ACGCATTC, the binding signal is reported as -0.136 E-score.
In the case of GGATGCGA, the binding signal is reported as -0.225 E-score.
ACGCGTTG was tested, and the binding signal was -0.0571 E-score.
Work on ACTGAGCT yielded a binding signal of 0.0701 E-score.
For TAATGAGA, the binding signal was 0.155 E-score.
With CCGAACGA the binding signal was -0.122 E-score.
In the case of GAGCCGCC, the binding signal is reported as -0.216 E-score.
CAGGATTA gave a binding signal of 0.0318 E-score.
AATTTGGA gave a binding signal of 0.0892 E-score.
GCACGCAC was tested, and the binding signal was -0.0999 E-score.
ACCGATCG showed a binding signal of -0.0485 E-score.
CGCCAGAA was tested, and the binding signal was -0.119 E-score.
In the case of AGTGTCTC, the binding signal is reported as -0.17 E-score.
Sequence ACTAAAGT has a binding signal of 0.109 E-score.
In the case of CGTACCAA, the binding signal is reported as 0.0712 E-score.
AAGGCTGA showed a binding signal of -0.082 E-score.
With AGTGGTCC the binding signal was -0.177 E-score.
CACATAGA gave a binding signal of 0.254 E-score.
With CTTAGGCC the binding signal was -0.319 E-score.
Work on GATCTCTA yielded a binding signal of -0.054 E-score.
Sequence GCTCAGTA has a binding signal of 0.122 E-score.
TAAACCTA gave a binding signal of 0.181 E-score.
With TATCCCCA the binding signal was -0.202 E-score.
Sequence CCCCCTAG has a binding signal of -0.298 E-score.
Work on CAAGAGAC yielded a binding signal of -0.191 E-score.
Sequence ATCATGGC has a binding signal of 0.000586 E-score.
Sequence AAAGCTAG has a binding signal of 0.152 E-score.
Work on GCACTAGC yielded a binding signal of -0.166 E-score.
GGATAATA gave a binding signal of 0.287 E-score.
Work on CGGGACGA yielded a binding signal of -0.0426 E-score.
CGGCCTTA showed a binding signal of -0.267 E-score.
Work on GAGGAATC yielded a binding signal of -0.0594 E-score.
With GCCAATAA the binding signal was 0.231 E-score.
Work on AACGCAAA yielded a binding signal of 0.0745 E-score.
Work on TCGTTACA yielded a binding signal of 0.184 E-score.
For AGTATTCG, the binding signal was 0.0541 E-score.
In the case of CACTCAGC, the binding signal is reported as -0.0194 E-score.
GCGTCTCC showed a binding signal of -0.259 E-score.
Work on ATGGAAAG yielded a binding signal of 0.0377 E-score.
In the case of GCGGCTCA, the binding signal is reported as -0.284 E-score.
CGTAACGC was tested, and the binding signal was -0.0429 E-score.
Work on AAAGGGTT yielded a binding signal of -0.0772 E-score.
Sequence CCGCAGTC has a binding signal of -0.281 E-score.
In the case of GTGAACAC, the binding signal is reported as 0.0524 E-score.
GAGTTTGA showed a binding signal of -0.199 E-score.
CGCACCCG showed a binding signal of -0.282 E-score.
Work on AGACGGCG yielded a binding signal of -0.192 E-score.
Work on CACTATGC yielded a binding signal of 0.152 E-score.
For CATATCCG, the binding signal was 0.112 E-score.
Work on TGCGCCAA yielded a binding signal of -0.208 E-score.
For GGCCTACA, the binding signal was 0.0878 E-score.
In the case of CGCGCATC, the binding signal is reported as -0.123 E-score.
GGTTGGAA gave a binding signal of -0.0516 E-score.
Sequence ATCGCACG has a binding signal of -0.15 E-score.
Sequence TGATTTAA has a binding signal of 0.0613 E-score.
For CAAAACCC, the binding signal was -0.244 E-score.
In the case of ATAGAGTC, the binding signal is reported as -0.171 E-score.
Sequence CGGTTTTC has a binding signal of -0.114 E-score.
Sequence ATCTTATG has a binding signal of 0.171 E-score.
AGTACCAT gave a binding signal of 0.216 E-score.
Work on CTCTATTA yielded a binding signal of 0.0982 E-score.
In the case of GACATTGA, the binding signal is reported as 0.0113 E-score.
Sequence ACCACAAC has a binding signal of 0.154 E-score.
ACTACAGT was tested, and the binding signal was 0.168 E-score.
CCCGGCGC was tested, and the binding signal was -0.483 E-score.
Sequence GTCTAAAC has a binding signal of 0.09 E-score.
AATTGTAA gave a binding signal of 0.317 E-score.
With GTGCAAGA the binding signal was 0.114 E-score.
Work on AATGATCA yielded a binding signal of 0.2 E-score.
With CTTGTGCA the binding signal was 0.00086 E-score.
AGCCCACG gave a binding signal of -0.162 E-score.
Sequence GAAACTAC has a binding signal of 0.469 E-score.
With CGTTGAAC the binding signal was -0.111 E-score.
Work on CTTCGCGC yielded a binding signal of 0.102 E-score.
In the case of CTCCCTGC, the binding signal is reported as -0.263 E-score.
With ATACTCAT the binding signal was 0.182 E-score.
AATTCTAC gave a binding signal of 0.435 E-score.
With CCATAAGC the binding signal was -0.083 E-score.
AGGCTGCC showed a binding signal of -0.372 E-score.
GATTGTGC was tested, and the binding signal was -0.0481 E-score.
CCGTTCAA was tested, and the binding signal was -0.00017 E-score.
TACCGTCA was tested, and the binding signal was 0.0267 E-score.
Sequence CCCTTCTA has a binding signal of -0.0759 E-score.
In the case of CAGCACCC, the binding signal is reported as -0.214 E-score.
GCTGTTTA showed a binding signal of 0.0322 E-score.
For CACGTACC, the binding signal was -0.25 E-score.
GACCCTCC gave a binding signal of -0.348 E-score.
ACCAACGC showed a binding signal of -0.141 E-score.
In the case of CCTATGTA, the binding signal is reported as 0.25 E-score.
With CAACCACG the binding signal was -0.0285 E-score.
Work on AGAACCGC yielded a binding signal of -0.0628 E-score.
In the case of AAGCTTGA, the binding signal is reported as -0.194 E-score.
For GCGTGCGA, the binding signal was -0.208 E-score.
GCGAGCCC gave a binding signal of -0.296 E-score.
For ACGCTAAG, the binding signal was 0.0725 E-score.
For GGCCTTTA, the binding signal was -0.154 E-score.
With CACCTGCG the binding signal was -0.189 E-score.
In the case of AGTGAACT, the binding signal is reported as 0.0515 E-score.
Sequence CTAGACTA has a binding signal of 0.0402 E-score.
AAACCGAG gave a binding signal of -0.199 E-score.
With ATACCTGA the binding signal was -0.0564 E-score.
Sequence CCAAGAAA has a binding signal of 0.0714 E-score.
Sequence GCGAGTTA has a binding signal of 0.0782 E-score.
AACCCTCG showed a binding signal of -0.254 E-score.
For AAATACTC, the binding signal was 0.227 E-score.
Sequence CCCTCGAA has a binding signal of -0.252 E-score.
Work on GGTCAGTA yielded a binding signal of 0.0787 E-score.
GACGTGAA showed a binding signal of 0.164 E-score.
With AAGCGGTA the binding signal was 0.228 E-score.
CTAAAGTA showed a binding signal of 0.192 E-score.
Work on AGGAAGGA yielded a binding signal of -0.148 E-score.
Sequence AATCCGGC has a binding signal of -0.0136 E-score.
In the case of CGCAATAG, the binding signal is reported as 0.202 E-score.
Work on CTTAAAAC yielded a binding signal of -0.0833 E-score.
Work on AATACCAT yielded a binding signal of 0.334 E-score.
For ACACCCCA, the binding signal was -0.244 E-score.
For CACGCTCG, the binding signal was -0.153 E-score.
Work on ACCCGCAA yielded a binding signal of -0.0563 E-score.
GAAAGGCC showed a binding signal of -0.223 E-score.
GTTAGGAA showed a binding signal of 0.0218 E-score.
AACCAAAC gave a binding signal of -0.093 E-score.
ACCCCGGG was tested, and the binding signal was -0.337 E-score.
Work on AATACCCA yielded a binding signal of 0.203 E-score.
Sequence TCATTGGA has a binding signal of 0.0185 E-score.
ATCATATC gave a binding signal of 0.152 E-score.
With CTGGCCGC the binding signal was -0.247 E-score.
AGATATAA showed a binding signal of 0.183 E-score.
CTAACCGC gave a binding signal of -0.174 E-score.
Work on GGATTGAC yielded a binding signal of -0.0238 E-score.
In the case of TCGTGCAA, the binding signal is reported as 0.058 E-score.
In the case of GAATGGAA, the binding signal is reported as -0.0613 E-score.
ATTCGCCA showed a binding signal of -0.0244 E-score.
With CACCATCA the binding signal was -0.109 E-score.
Sequence CACACACC has a binding signal of 0.00266 E-score.
For AGGCGCAT, the binding signal was -0.126 E-score.
For ATAGGTGC, the binding signal was -0.0785 E-score.
CATTAGGC showed a binding signal of -0.146 E-score.
In the case of CGGAAATA, the binding signal is reported as 0.125 E-score.
For TGGCGCCA, the binding signal was -0.386 E-score.
CACTGCTC was tested, and the binding signal was -0.276 E-score.
AAAGCTGA showed a binding signal of -0.174 E-score.
Work on AGGATAAA yielded a binding signal of 0.0101 E-score.
In the case of AAAGCGCA, the binding signal is reported as -0.14 E-score.
Sequence CTAGATCA has a binding signal of 0.212 E-score.
CGATCGTC gave a binding signal of -0.0643 E-score.
ATTTACGG was tested, and the binding signal was 0.243 E-score.
With CCAAATAC the binding signal was 0.169 E-score.
Work on ACGGGCAT yielded a binding signal of -0.146 E-score.
CAGGCACA gave a binding signal of -0.0806 E-score.
With CGCTTATA the binding signal was 0.174 E-score.
For AAAAAATG, the binding signal was -0.0454 E-score.
